Source: publication PMC9243173

B1: 3HA-3FLAG-CIAO3, wildtype [human] / probable cytosolic iron-sulfur protein assembly protein CIAO1 [human (endogenous in Flp-In T-REx 293)] (parent)
chain 1: MASPFSGALQLTDLDDFIGPSQECIKPVKVEKRAGSGVAKIRIEDDGSYFQINQDGGTRRLEKAKVSLNDCLACSGCITSAETVLITQQSHEELKKVLDANKMAAPSQQRLVVVSVSPQSRASLAARFQLNPTDTARKLTSFFKKIGVHFVFDTAFSRHFSLLESQREFVRRFRGQADCRQALPLLASACPGWICYAEKTHGSFILPHISTARSPQQVMGSLVKDFFAQQQHLTPDKIYHVTVMPCYDKKLEASRPDFFNQEHQTRDVDCVLTTGEVFRLLEEEGVSLPDLEPAPLDSLCSGASAEEPTSHRGGGSGGYLEHVFRHAARELFGIHVAEVTYKPLRNKDFQEVTLEKEGQVLLHFAMAYGFRNIQNLVQRLKRGRCPYHYVEVMACPSGCLNGGGQLQAPDRPSRELLQHVERLYGMVRAEAPEDAPGVQELYTHWLQGTDSECAGRLLHTQYHAVEKASTGLGIRW
chain 2: MKDSLVLLGRVPAHPDSRCWFLAWNPAGTLLASCGGDRRIRIWGTEGDSWICKSVLSEGHQRTVRKVAWSPCGNYLASASFDATTCIWKKNQDDFECVTTLEGHENEVKSVAWAPSGNLLATCSRDKSVWVWEVDEEDEYECVSVLNSHTQDVKHVVWHPSQELLASASYDDTVKLYREEEDDWVCCATLEGHESTVWSLAFDPSGQRLASCSDDRTVRIWRQYLPGNEQGVACSGSDPSWKCICTLSGFHSRTIYDIAWCQLTGALATACGDDAIRVFQEDPNSDPQQPTFSLTAHLHQAHSQDVNCVAWNPKEPGLLASCSDDGEVAFWKYQRPEGL
B2: 3HA-3FLAG-CIAO3, wildtype [human] / CDKAL1 [human (endogenous in Flp-In T-REx 293)] (parent)
chain 1: B1 chain 1
chain 2: MPSASCDTLLDDIEDIVSQEDSKPQDRHFVRKDVVPKVRRRNTQKYLQEEENSPPSDSTIPGIQKIWIRTWGCSHNNSDGEYMAGQLAAYGYKITENASDADLWLLNSCTVKNPAEDHFRNSIKKAQEENKKIVLAGCVPQAQPRQDYLKGLSIIGVQQIDRVVEVVEETIKGHSVRLLGQKKDNGRRLGGARLDLPKIRKNPLIEIISINTGCLNACTYCKTKHARGNLASYPIDELVDRAKQSFQEGVCEIWLTSEDTGAYGRDIGTNLPTLLWKLVEVIPEGAMLRLGMTNPPYILEHLEEMAKILNHPRVYAFLHIPVQSASDSVLMEMKREYCVADFKRVVDFLKEKVPGITIATDIICGFPGETDQDFQETVKLVEEYKFPSLFINQFYPRPGTPAAKMEQVPAQVKKQRTKDLSRVFHSYSPYDHKIGERQQVLVTEESFDSKFYVAHNQFYEQVLVPKNPAFMGKMVEVDIYESGKHFMKGQPVSDAKVYTPSISKPLAKGEVSGLTKDFRNGLGNQLSSGSHTSAASQCDSASSRMVLPMPRLHQDCALRMSVGLALLGLLFAFFVKVYN
B3: 3HA-3FLAG-CIAO3, wildtype [human] / POLD1 [human (endogenous in Flp-In T-REx 293)] (parent)
chain 1: B1 chain 1
chain 2: MDGKRRPGPGPGVPPKRARGGLWDDDDAPRPSQFEEDLALMEEMEAEHRLQEQEEEELQSVLEGVADGQVPPSAIDPRWLRPTPPALDPQTEPLIFQQLEIDHYVGPAQPVPGGPPPSRGSVPVLRAFGVTDEGFSVCCHIHGFAPYFYTPAPPGFGPEHMGDLQRELNLAISRDSRGGRELTGPAVLAVELCSRESMFGYHGHGPSPFLRITVALPRLVAPARRLLEQGIRVAGLGTPSFAPYEANVDFEIRFMVDTDIVGCNWLELPAGKYALRLKEKATQCQLEADVLWSDVVSHPPEGPWQRIAPLRVLSFDIECAGRKGIFPEPERDPVIQICSLGLRWGEPEPFLRLALTLRPCAPILGAKVQSYEKEEDLLQAWSTFIRIMDPDVITGYNIQNFDLPYLISRAQTLKVQTFPFLGRVAGLCSNIRDSSFQSKQTGRRDTKVVSMVGRVQMDMLQVLLREYKLRSYTLNAVSFHFLGEQKEDVQHSIITDLQNGNDQTRRRLAVYCLKDAYLPLRLLERLMVLVNAVEMARVTGVPLSYLLSRGQQVKVVSQLLRQAMHEGLLMPVVKSEGGEDYTGATVIEPLKGYYDVPIATLDFSSLYPSIMMAHNLCYTTLLRPGTAQKLGLTEDQFIRTPTGDEFVKTSVRKGLLPQILENLLSARKRAKAELAKETDPLRRQVLDGRQLALKVSANSVYGFTGAQVGKLPCLEISQSVTGFGRQMIEKTKQLVESKYTVENGYSTSAKVVYGDTDSVMCRFGVSSVAEAMALGREAADWVSGHFPSPIRLEFEKVYFPYLLISKKRYAGLLFSSRPDAHDRMDCKGLEAVRRDNCPLVANLVTASLRRLLIDRDPEGAVAHAQDVISDLLCNRIDISQLVITKELTRAASDYAGKQAHVELAERMRKRDPGSAPSLGDRVPYVIISAAKGVAAYMKSEDPLFVLEHSLPIDTQYYLEQQLAKPLLRIFEPILGEGRAEAVLLRGDHTRCKTVLTGKVGGLLAFAKRRNCCIGCRTVLSHQGAVCEFCQPRESELYQKEVSHLNALEERFSRLWTQCQRCQGSLHEDVICTSRDCPIFYMRKKVRKDLEDQEQLLRRFGPPGPEAW
B4: 3HA-3FLAG-CIAO3, wildtype [human] / ABCE1 [human (endogenous in Flp-In T-REx 293)] (parent)
chain 1: B1 chain 1
chain 2: not shown
B5: 3HA-3FLAG-CIAO3, wildtype [human] / cytosolic iron-sulfur assembly component 2B (CIAO2B) [human (endogenous in Flp-In T-REx 293)] (parent)
chain 1: B1 chain 1
chain 2: MVGGGGVGGGLLENANPLIYQRSGERPVTAGEEDEQVPDSIDAREIFDLIRSINDPEHPLTLEELNVVEQVRVQVSDPESTVAVAFTPTIPHCSMATLIGLSIKVKLLRSLPQRFKMDVHITPGTHASEHAVNKQLADKERVAAALENTHLLEVVNQCLSARS
B6: 3HA-3FLAG-CIAO3, wildtype [human] / MMS19 nucleotide excision repair protein homolog (MMS19) [human (endogenous in Flp-In T-REx 293)] (parent)
chain 1: B1 chain 1
chain 2: MAAAAAVEAAAPMGALWGLVHDFVVGQQEGPADQVAADVKSGNYTVLQVVEALGSSLENPEPRTRARAIQLLSQVLLHCHTLLLEKEVVHLILFYENRLKDHHLVIPSVLQGLKALSLCVALPPGLAVSVLKAIFQEVHVQSLPQVDRHTVYNIITNFMRTREEELKSLGADFTFGFIQVMDGEKDPRNLLVAFRIVHDLISRDYSLGPFVEELFEVTSCYFPIDFTPPPNDPHGIQREDLILSLRAVLASTPRFAEFLLPLLIEKVDSEVLSAKLDSLQTLNACCAVYGQKELKDFLPSLWASIRREVFQTASERVEAEGLAALHSLTACLSRSVLRADAEDLLDSFLSNILQDCRHHLCEPDMKLVWPSAKLLQAAAGASARACDSVTSNVLPLLLEQFHKHSQSSQRRTILEMLLGFLKLQQKWSYEDKDQRPLNGFKDQLCSLVFMALTDPSTQLQLVGIRTLTVLGAQPDLLSYEDLELAVGHLYRLSFLKEDSQSCRVAALEASGTLAALYPVAFSSHLVPKLAEELRVGESNLTNGDEPTQCSRHLCCLQALSAVSTHPSIVKETLPLLLQHLWQVNRGNMVAQSSDVIAVCQSLRQMAEKCQQDPESCWYFHQTAIPCLLALAVQASMPEKEPSVLRKVLLEDEVLAAMVSVIGTATTHLSPELAAQSVTHIVPLFLDGNVSFLPENSFPSRFQPFQDGSSGQRRLIALLMAFVCSLPRNVEIPQLNQLMRELLELSCCHSCPFSSTAAAKCFAGLLNKHPAGQQLDEFLQLAVDKVEAGLGSGPCRSQAFTLLLWVTKALVLRYHPLSSCLTARLMGLLSDPELGPAAADGFSLLMSDCTDVLTRAGHAEVRIMFRQRFFTDNVPALVQGFHAAPQDVKPNYLKGLSHVLNRLPKPVLLPELPTLLSLLLEALSCPDCVVQLSTLSCLQPLLLEAPQVMSLHVDTLVTKFLNLSSSPSMAVRIAALQCMHALTRLPTPVLLPYKPQVIRALAKPLDDKKRLVRKEAVSARGEWFLLGSPGS

Variants of: B1
Test: affinity purification with PRM-based targeted proteomics
Conditions: with probable cytosolic iron-sulfur protein assembly protein CIAO1 [human (endogenous in Flp-In T-REx 293)]; 1 μg/ml doxycycline for 24 h; normalized to CIAO3 levels; two biological replicates; read off a plot

chain 1 C190S C395S showed a response (Log2Intensities) of 20.

Variants of: B2
Test: as above
Conditions: with CDKAL1 [human (endogenous in Flp-In T-REx 293)]; 1 μg/ml doxycycline for 24 h; normalized to CIAO3 levels; two biological replicates; read off a plot

In order of falling response (Log2Intensities):
1. chain 1 C71S C190S C395S  19
2. chain 1 C190S C395S  18
3. chain 1 C71S  15

Variants of: B3
Test: as above
Conditions: with POLD1 [human (endogenous in Flp-In T-REx 293)]; 1 μg/ml doxycycline for 24 h; normalized to CIAO3 levels; two biological replicates; read off a plot

In order of rising response (Log2Intensities):
1. chain 1 C71S  14
2. chain 1 C71S C190S C395S  18
3. chain 1 C190S C395S  18

Variants of: B4
Test: as above
Conditions: with ABCE1 [human (endogenous in Flp-In T-REx 293)]; 1 μg/ml doxycycline for 24 h; normalized to CIAO3 levels; two biological replicates; read off a plot

In order of rising response (Log2Intensities):
1. chain 1 C71S  16
2. chain 1 C190S C395S  19
3. chain 1 C71S C190S C395S  20

Variants of: B5
Test: as above
Conditions: with cytosolic iron-sulfur assembly component 2B (CIAO2B) [human (endogenous in Flp-In T-REx 293)]; 1 μg/ml doxycycline for 24 h; normalized to CIAO3 levels; two biological replicates; read off a plot

Work on chain 1 C190S C395S yielded a response (Log2Intensities) of 20.

Variants of: B6
Test: as above
Conditions: with MMS19 nucleotide excision repair protein homolog (MMS19) [human (endogenous in Flp-In T-REx 293)]; 1 μg/ml doxycycline for 24 h; normalized to CIAO3 levels; two biological replicates; read off a plot

In the case of chain 1 C190S C395S, the response (Log2Intensities) is reported as 20.
